# Measured values as given in the supplement of paper PMC4166925.
# ± gives the standard deviation of the averaged measurements. The full ranking holds about 33,000 sequences; the median of “E-score (dimensionless, -0.5 to 0.5)” is about -0.046, and the highest 2% start at about 0.36. Some of the results follow.
# Test system: T1, SpTbr T-box DNA-binding domain (GST fusion)
# T1 sequence: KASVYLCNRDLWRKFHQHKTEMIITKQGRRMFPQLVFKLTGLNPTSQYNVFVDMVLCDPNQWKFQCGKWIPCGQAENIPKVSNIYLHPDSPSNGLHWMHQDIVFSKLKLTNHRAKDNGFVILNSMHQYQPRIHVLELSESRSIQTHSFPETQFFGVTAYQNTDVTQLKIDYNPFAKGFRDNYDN
# Test: PBM E-score of 8-mer (E-score (dimensionless, -0.5 to 0.5)); Tbr is Tbrain of the sea star Patiria miniata (Pm) or the sea urchin Strongylocentrotus purpuratus (Sp); higher = stronger binding preference; most listed sequences are background and not binding sites
# Conditions: the construct has about 5 more residues each side
# In short: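 Expression of GST-fused Tbr T-box DNA-binding domains, each holding the full T-box plus roughly five flanking residues, was carried out in BL21 E. coli at 20 °C, with purification by glutathione affinity chromatography. Universal Agilent arrays made double-stranded by primer extension were incubated with the protein at 200 nM in PBS (pH 7.5), then scanned and quantified. All ungapped 8-mers were scored from probe intensities, and each received an enrichment E-score from the Universal PBM Analysis Suite, averaged over duplicate arrays.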
row,Sequence,PBM E-score of 8-mer
1,ATTGAGGC,-0.074 ± 0.032
2,AGCTCAGA,-0.0155 ± 0.07
3,CAGGTTCC,-0.104 ± 0.083
4,GGTCTTAC,-0.251 ± 0.029
5,ACTTGGCC,0.0332 ± 0.045
6,GCGGTGTA,-0.122 ± 0.012
7,CTAGAAAG,-0.103 ± 0.031
8,AGATACCT,-0.125 ± 0.072
9,GGGCAATA,-0.261 ± 0.046
10,ATATCAGC,-0.114 ± 0.044
11,CGACTTTA,0.0445 ± 0.032
12,TGAATGAA,-0.243 ± 0.038
13,AAAGACGG,-0.0799 ± 0.015
14,AACGTGTA,0.135 ± 0.074
15,CGGGCAGA,-0.00966 ± 0.018
16,CACTCAAA,-0.0682 ± 0.008
17,GAACAACA,0.144 ± 0.08
18,AGAAGACG,-0.233 ± 0.0039
19,CAGTGCGG,0.107 ± 0.0036
20,CTTTCTAC,-0.0127 ± 0.014
21,CTAAACTC,-0.124 ± 0.069
22,TCATTACA,-0.0133 ± 0.029
23,ATTACATA,-0.115 ± 0.038
24,AGATTACT,0.00864 ± 0.0059
25,CCACCTCG,0.228 ± 0.019

row,Sequence,PBM E-score of 8-mer
1,ACTGCCTA,-0.14 ± 0.028
2,AAAAGTAA,-0.13 ± 0.022
3,CCGAAAGG,-0.139 ± 0.059
4,CACGACGG,0.154 ± 0.011
5,CGATAGCC,-0.124 ± 0.035
6,AGGTGAAT,0.0974 ± 0.03
7,ACATCCAG,0.11 ± 0.03
8,TGTATGAA,-0.1868 ± 0.00056
9,AACTTCAT,-0.0326 ± 0.0097
10,GGGATTCA,-0.198 ± 0.042
11,CCTGTTCG,0.0983 ± 0.041
12,CTCGTATA,-0.142 ± 0.0069
13,AGAGAAAC,-0.203 ± 0.065
14,CCAATGCA,-0.17 ± 0.014
15,GTAAACGA,0.0262 ± 0.028
16,AACCGGCC,-0.307 ± 0.021
17,GTGACTGA,0.219 ± 0.0086
18,GCGAGAAA,0.342 ± 0.0013
19,CTGGGGCA,0.035 ± 0.018
20,TAACGTCA,0.00157 ± 0.054
21,AGAACCCC,0.0318 ± 0.019
22,AAGGCGCA,0.164 ± 0.054
23,CAATGAGG,-0.159 ± 0.043
24,AGTGCTAT,0.243 ± 0.079
25,CAATAGGC,-0.129 ± 0.012

row,Sequence,PBM E-score of 8-mer
1,CTGTATGC,-0.0634 ± 0.0013
2,GAAAGATC,-0.091 ± 0.048
3,GGGGGGAA,-0.289 ± 0.021
4,GAGGGGCA,-0.0623 ± 0.054
5,GGAAGGTA,-0.118 ± 0.022
6,GAGTAACC,-0.27 ± 0.048
7,ATGACTAC,-0.124 ± 0.034
8,CTAAGCGA,-0.0129 ± 0.077
9,CCAGTAAG,-0.0356 ± 0.038
10,GCTCCTAC,0.0646 ± 0.0047
11,GCGCAGCA,-0.0875 ± 0.074
12,CATGTCGC,0.295 ± 0.022
13,AGCTAGGC,-0.0248 ± 0.034
14,ACGTCCCA,0.128 ± 0.051
15,ACTGCGAA,0.332 ± 0.018
16,AGGGTAGA,-0.123 ± 0.013
17,GGTACGGA,-0.168 ± 0.037
18,AGCCCCCG,-0.0604 ± 0.015
19,ACAAGATA,-0.0688 ± 0.057
20,CGCCAACG,0.249 ± 0.0059
21,GGACGGAA,-0.196 ± 0.042
22,GCAGCGAC,0.0569 ± 0.0088
23,GGTTGCCA,0.0502 ± 0.059
24,ACTGGCGC,0.15 ± 0.073
25,CCCTTCTA,-0.0119 ± 0.062

row,Sequence,PBM E-score of 8-mer
1,GGCACAGA,-0.0765 ± 0.08
2,AGCCGCCT,-0.0151 ± 0.081
3,CGCGGACG,0.218 ± 0.043
4,ACTCTGAT,-0.159 ± 0.032
5,ACGCTTTG,0.146 ± 0.01
6,GCTATCCC,-0.0867 ± 0.066
7,CAGCCTAG,-0.0894 ± 0.0031
8,AAGCAAAT,-0.22 ± 0.038
9,ATCACGAG,0.158 ± 0.036
10,AGGACCAG,-0.213 ± 0.0063
11,AGCGTAAG,-0.0572 ± 0.008
12,ATTGAACG,-0.256 ± 0.016
13,ATCGTTGC,-0.00439 ± 0.021
14,CTGGTAAA,-0.036 ± 0.055
15,AGGTAGAG,-0.105 ± 0.087
16,CGGCAGTA,-0.1505 ± 0.00081
17,ACAGCGAC,0.0384 ± 0.044
18,ATTCCCGG,-0.177 ± 0.074
19,TTAAGAAA,-0.127 ± 0.016
20,AAAAATAA,-0.125 ± 0.075
21,CACGTGGG,0.14 ± 0.023
22,AGAAAATA,0.0356 ± 0.13
23,CCCGGTCC,-0.235 ± 0.039
24,GCTCAAGC,-0.247 ± 0.098
25,AAGCTTGC,0.118 ± 0.012

row,Sequence,PBM E-score of 8-mer
1,GGACGCTA,0.00335 ± 0.09
2,CCGTAGAA,-0.35 ± 0.015
3,ACCGCGAC,0.0643 ± 0.075
4,GGCCCATA,-0.384 ± 0.1
5,ATACGGAA,-0.223 ± 0.036
6,CTAGATAG,-0.156 ± 0.034
7,ACCTGCCT,0.00297 ± 0.084
8,CCGATCGA,-0.0327 ± 0.037
9,AGTCACGC,0.3794 ± 0.0033
10,TCCCAGGA,-0.155 ± 0.054
11,GATAGAAA,-0.0476 ± 0.0012
12,AAATCTTC,-0.184 ± 0.031
13,GAATTCCA,0.00328 ± 0.042
14,ACTTGGGC,0.0268 ± 0.1
15,CCTAAGAG,-0.381 ± 0.025
16,AGAGAACC,-0.22 ± 0.061
17,TGGCCCCA,0.136 ± 0.045
18,AGAGAACA,0.00498 ± 0.081
19,ACATAGCC,-0.224 ± 0.018
20,ATTCCCGC,0.0284 ± 0.028
21,CCCGCTGA,0.0266 ± 0.031
22,AGGAGCCG,0.145 ± 0.016
23,CCCTATTC,-0.098 ± 0.02
24,AGGCAGAG,-0.158 ± 0.03
25,AACTATTC,-0.058 ± 0.029

row,Sequence,PBM E-score of 8-mer
1,ACTCCACC,-0.0731 ± 0.091
2,GGTGGTCA,0.0202 ± 0.028
3,TGTGGAAA,0.189 ± 0.046
4,ATCTTTTC,-0.076 ± 0.041
5,CACCTCGC,0.439 ± 0.012
6,AGTTATTG,-0.116 ± 0.024
7,CAAGCGTA,-0.0764 ± 0.029
8,AAGCCCTA,-0.219 ± 0.0039
9,CTTAACAC,0.429 ± 0.017
10,CCCTGCAA,-0.16 ± 0.039
11,ACGGGAGT,0.0565 ± 0.039
12,CACATTCC,0.139 ± 0.02
13,CCCATAGG,-0.162 ± 0.032
14,GTATCAAA,-0.262 ± 0.055
15,CCTTGGCA,0.217 ± 0.058
16,GTTATCGA,0.179 ± 0.041
17,ACTTAAAA,-0.158 ± 0.074
18,ATGCGCGC,0.157 ± 0.021
19,ACGGTTGC,0.121 ± 0.067
20,AAGGGGCC,-0.137 ± 0.0041
21,CTGGCCAA,-0.153 ± 0.029
22,CGGCTATC,-0.169 ± 0.048
23,ACACGGTC,0.0193 ± 0.02
24,AGTTACAG,-0.146 ± 0.064
25,CACGATAG,-0.00949 ± 0.03

row,Sequence,PBM E-score of 8-mer
1,CCAAATGA,-0.214 ± 0.025
2,AGCTGGGC,-0.183 ± 0.028
3,GCAGTCAA,0.0789 ± 0.012
4,CGAACGCC,0.143 ± 0.055
5,AGCGGAAT,-0.162 ± 0.011
6,GATCATTA,-0.229 ± 0.0073
7,AAATTCGA,-0.037 ± 0.13
8,GGCATTGA,-0.2119 ± 0.0014
9,AGATCGAC,-0.0961 ± 0.033
10,TCCACACA,0.305 ± 0.0032
11,CTAAAAAG,-0.0115 ± 0.032
12,CAGTGTCG,0.266 ± 0.0072
13,GCCAAGGC,0.0335 ± 0.021
14,AATATTTA,-0.205 ± 0.06
15,ATGCACTG,-0.244 ± 0.048
16,ATTGGGAG,-0.168 ± 0.032
17,ACCAAAGA,-0.067 ± 0.035
18,TAGCAATA,0.0438 ± 0.026
19,CACTACTC,-0.109 ± 0.0032
20,AGAACAAT,-0.0181 ± 0.019
21,CGTATAGC,-0.0189 ± 0.00065
22,GTCGTAAA,-0.0128 ± 0.013
